In the supplement of paper PMC6135742:
Several values for one entry are separate records, joined by “and”; a condition that tells them apart may be missing. Equal entries are not always repeated. Structures can show the parent of a compound that is named as a salt. ± gives the standard deviation of the averaged measurements. In all, about 2,600 compounds were measured (“total cell number (DAPI+ nuclei) relative to DMSO vehicle control”: median about -1.4, lowest 2% from about -23 on). Some of the results follow.

System: jimpy (Plp1 jimpy) mouse iPSC-derived oligodendrocyte progenitor cells
Assay: total cell number (DAPI+ nuclei) relative to DMSO vehicle control (SDs above negative control mean); higher = more surviving cells
Details: 10 µM; 3 days

Row | SMILES | total cell number
1 | Cc1cnc(-c2cnc(NCCNc3ccc(C#N)cn3)nc2-c2ccc(Cl)cc2Cl)[nH]1 | -7.12
2 | CC1(C)CC(=O)c2c(C(F)(F)F)nn(-c3ccc(C(N)=O)c(N[C@H]4CC[C@H](OC(=O)CN)CC4)c3)c2C1 | -12.4
3 | CC1(C)[C@@H](O)CC[C@]2(C)[C@H]3C(=O)C=C4[C@@H]5C[C@@](C)(C(=O)O)CC[C@]5(C)CC[C@@]4(C)[C@]3(C)CC[C@@H]12 [Enoxolone] | 1.6
4 | COc1ccc2c(c1)c(CC(=O)O)c(C)n2Cc1ccc(Cl)cc1 [1-(4-Chlorobenzyl)-5-methoxy-2-methylindole-3-acetic acid] | -1.66
5 | COC(=O)[C@@H](N)Cc1ccc(O)c(O)c1 [L-3,4-Dihydroxyphenylalanine methyl ester hydrochloride] | 0.202
6 | C[C@H]1COC2(CCN(c3nc(=O)c4cc(C(F)(F)F)cc([N+](=O)[O-])c4s3)CC2)O1 (racemic) [BTZ043 Racemate] | -1.69
7 | O=C(O)c1ccc(-n2nc(-c3ccccc3O)nc2-c2ccccc2O)cc1 [Deferasirox] | -0.688
8 | COCCOC(=O)C1=C(C)NC(C)=C(C(=O)OC(C)C)C1c1cccc([N+](=O)[O-])c1 (stereo unspecified) [Nimodipine] | -6.64 ± 12
9 | NCCS [Cysteamine hydrochloride] | -1.26
10 | NCCS [Cysteamine HCl] | -0.832
11 | CN1C(C(=O)Nc2ccccn2)=C(O)c2ccccc2S1(=O)=O [Piroxicam] | -0.356 ± 0.79
12 | COc1c(C)c2c(c(O)c1C/C=C(\C)CCC(=O)OCCN1CCOCC1)C(=O)OC2 [Mycophenolate Mofetil] | -13.5
13 | CC(N)(Cc1ccc(O)cc1)C(=O)O (racemic) [DL-alpha-Methyl-p-tyrosine] | 0.65
14 | COC(=O)CCc1ccc(OCC(O)CNC(C)C)cc1 (stereo unspecified) [Esmolol HCl] | 0.808
15 | O=C(NCc1cccc(O)c1)Nc1nc(-c2ccncc2)cs1 | -7.77
16 | NCC(=O)CCC(=O)O [5-Aminolevulinic acid HCl] | -0.691
17 | C[C@H](NC(=O)CCc1nc2ccccc2c(=O)[nH]1)c1ccccc1 | 0.634
18 | CN1CCC(CNc2ccc3ncc(-c4cccc(OC(F)(F)F)c4)n3n2)CC1 [SGI-1776 free base] | -14.8
19 | Cc1ccc(Sc2ccccc2N2CCNCC2)c(C)c1 | -16.6
20 | O=C(O)C[C@H](O)C[C@H](O)/C=C/c1c(C2CC2)nc2ccccc2c1-c1ccc(F)cc1 [Pitavastatin Calcium] | -8.22
21 | Cc1ccc(C)c(OCCCC(C)(C)C(=O)O)c1 [Gemfibrozil] | -0.831

Row | SMILES | total cell number
22 | O=c1[nH]c2cc(Cl)ccc2c(O)c1-c1cccc(Oc2ccccc2)c1 | -1.89
23 | O=C(CCCN1CCC(O)(c2ccc(Cl)cc2)CC1)c1ccc(F)cc1 [Haloperidol] | -2.63 ± 0.44
24 | COc1cc2c(cc1OC)[C@@H]1Cc3ccc(OC)c(OC)c3CN1CC2 [Rotundine] | -1.92
25 | Cc1cccc(-c2[nH]ncc2-c2ccc3ncccc3n2)n1 | -0.693 ± 1.4
26 | Cc1ccccc1C(=O)Nc1ccc(C(=O)N2CCCC(N(C)C)c3ccccc32)cc1 (stereo unspecified) [Mozavaptan] | -3.94
27 | O=C(NCCCNc1nc(Nc2cccc(NC(=O)N3CCCC3)c2)ncc1I)c1cccs1 | -23.5
28 | NCCCCN [Putrescine dihydrochloride] | -0.41
29 | CN(Cc1ccc(C(C)(C)C)cc1)Cc1cccc2ccccc12 [Butenafine HCl] | 5.88
30 | S=c1[nH]cnc2nc[nH]c12 [Mercaptopurine (6-MP)] | -5.89
31 | NS(=O)(=O)c1ccc(NC(=O)Nc2ccc(F)cc2)cc1 | -0.583
32 | CCCCC1(C2CCCC2)Cc2cc(OCC(=O)O)c(Cl)c(Cl)c2C1=O (stereo in doubt) [R(+)-Butylindazone] | -0.443
33 | Cc1cc(F)c(Nc2ncnc3cc(OCc4ccccc4)ccc23)cc1O | -9.22
34 | Nc1nc2c(ncn2[C@@H]2O[C@H](CO)[C@@H](O)[C@@H]2O)c(=O)[nH]1 [Ara-G hydrate] | -1.45
35 | O=c1[nH]c(=O)n([C@H]2C[C@H](O)[C@@H](CO)O2)cc1C(F)(F)F [Trifluridine] | -14.5
36 | Cc1cc(C#N)cc(C)c1Oc1nc(Nc2ccc(C#N)cc2)nc(N)c1Br [Etravirine (TMC125)] | 0.592
37 | Cc1nnc(SCC2=C(C(=O)O)N3C(=O)[C@@H](NC(=O)Cn4cnnn4)[C@H]3SC2)s1 [Cefazolin sodium] | -1.93
38 | Cn1cncc1[C@@](N)(c1ccc(Cl)cc1)c1ccc2c(c1)c(-c1cccc(Cl)c1)cc(=O)n2C [Tipifarnib] | -21.4
39 | O=C1OC(=O)[C@H]2[C@@H]1[C@@H]1CC[C@H]2O1 [Norcantharidin] | -4.44
40 | O=C(NNc1ccccc1)c1ccncc1 | -0.0247
41 | CC(C)n1cnc2c(NCCc3ccc(O)cc3)nc(-c3csc4ccccc34)nc21 [StemRegenin 1 (SR1)] | -8.19
42 | CC(C)Cn1cnc2c(N)nc3ccccc3c21 [Imiquimod] | -0.448

Row | SMILES | total cell number
43 | CN(C)c1ccc(-c2nc3ncc(Cl)c(N4CCN(CC(=O)Nc5nccs5)CC4)c3[nH]2)cc1 | 1.85
44 | NC(=O)N1c2ccccc2CC(=O)c2ccccc21 [Oxcarbazepine] | -1.04
45 | NC1=NCC2c3ccccc3Cc3ccccc3N12 (stereo unspecified) [Epinastine hydrochloride] | -2.66
46 | NC1=NCC2c3ccccc3Cc3ccccc3N12 (stereo unspecified) [Epinastine HCl] | 1.45
47 | Oc1nc(-c2ccc(C(F)(F)F)cc2)nc2c1CSCC2 | -8.16
48 | CSc1c(C)c(SC)n2ccncc12 [Oltipraz metabolite M2] | -3.2
49 | COc1cc2c(cc1OC)-c1c/c(=N\c3c(C)cc(C)cc3C)n(C)c(=O)n1CC2 [Trequinsin hydrochloride] | -0.581
50 | Cc1cccc(Nc2ccncc2S(=O)(=O)NC(=O)NC(C)C)c1 [Torsemide] | -0.795
51 | Cc1ccc(Cl)cc1N(CC(=O)Nc1c(F)cccc1F)S(C)(=O)=O | -0.321
52 | O=C(c1ccc(F)cc1)N1CCC[C@H](c2nc(-c3ccc(F)cc3)no2)C1 | -0.73
53 | O=C1N=C(O)NC1(c1ccccc1)c1ccccc1 [Phenytoin sodium] | 0.728 ± 1.1
54 | CCOC(=O)[C@@H](N)Cc1ccc(O)c(O)c1 [L-Dopa ethyl ester] | -2.07
55 | O=C1Nc2ccc(I)cc2/C1=C/c1cc(Br)c(O)c(Br)c1 | -2 ± 1.2
56 | CN(C)c1cc(NC(=O)CNC(C)(C)C)c(O)c2c1C[C@H]1C[C@H]3[C@H](N(C)C)C(O)=C(C(N)=O)C(=O)[C@@]3(O)C(O)=C1C2=O [Tigecycline] | -2.34
57 | CC1(C)O[C@@H]2[C@@H](CO[C@@]3(COS(N)(=O)=O)OC(C)(C)O[C@@H]23)O1 [Topiramate] | 0.307
58 | COc1cc(NS(=O)(=O)c2ccc(N)cc2)nc(OC)n1 [Sulphadimethoxine] | -0.58
59 | COc1ccc2cc3[n+](cc2c1OC)CCc1cc2c(cc1-3)OCO2 [Berberine HCl] | -10.6
60 | COc1cc2c(cc1Cc1cccc(Cl)c1F)c(=O)c(C(=O)O)cn2[C@H](CO)C(C)C [Elvitegravir (GS-9137, JTK-303)] | -9.4
61 | CC(=O)NC[C@H]1CN(c2ccc(N3CCOCC3)c(F)c2)C(=O)O1 [Linezolid] | 0.892 ± 2.1
62 | O=c1c2ccccc2[nH]c(=S)n1CCN1CCC(=C(c2ccc(F)cc2)c2ccc(F)cc2)CC1 [Diacylglycerol Kinase Inhibitor II] | -0.322
63 | Cc1nccn1CC1CCc2c(c3ccccc3n2C)C1=O (stereo unspecified) [Ondansetron HCl] | 6.45

Row | SMILES | total cell number
64 | COc1ccc2c(c1)c(CC(=O)OCC(=O)O)c(C)n2C(=O)c1ccc(Cl)cc1 [Acemetacin] | -5.97
65 | CN1CC(=O)N=C1NC(=O)Nc1cccc(Cl)c1 [Fenobam] | -1.83
66 | CCCc1c(OCCCOc2ccc(OCC(=O)O)cc2)ccc(C(C)=O)c1O | -1.19
67 | CC1=C(C(=O)O)N2C(=O)[C@@H](NC(=O)[C@H](N)c3ccccc3)[C@H]2SC1 [Cephalexin] | -5.01
68 | CC1=C(C(=O)O)N2C(=O)[C@@H](NC(=O)[C@H](N)c3ccccc3)[C@H]2SC1 [Cephalexin hydrate] | -0.337
69 | CC[C@H](C)C(=O)O[C@H]1C[C@H](O)C=C2C=C[C@H](C)[C@H](CC[C@@H](O)C[C@@H](O)CC(=O)O)[C@H]21 [Pravastatin sodium] | -3.03
70 | Cc1ccc(S(=O)(=O)/C=C/C#N)cc1 | -3.49 and -9.02
71 | Nc1ccccc1NC(=O)c1ccc(CNc2nccc(-c3cccnc3)n2)cc1 [Mocetinostat (MGCD0103)] | -16.5
72 | C[C@H](CCC(=O)NCCS(=O)(=O)O)[C@H]1CC[C@H]2[C@@H]3[C@H](O)C[C@@H]4C[C@H](O)CC[C@]4(C)[C@H]3C[C@H](O)[C@]12C [Sodium Taurocholate hydrate] | 0.747
73 | COc1cc(-c2cc(-c3cccc(O)c3)cnc2N)cc(OC)c1OC | -10.9
74 | COc1cc2ncnc(Nc3ccc(O)c(Br)c3)c2cc1OC | -7.29
75 | CCCC(=O)Nc1cccc(NC(=O)c2ccccc2Br)c1 | -0.0444
76 | Cc1cccc(C2CN(C)CCc3c2cc(O)c(O)c3Cl)c1 (stereo unspecified) | 0.122
77 | C=C1[C@H](CO)[C@@H](O)C[C@@H]1n1cnc2c(=O)[nH]c(N)nc21 [Entecavir Hydrate] | -5.3
78 | CC(=O)O[C@]1(C(C)=O)CC[C@H]2[C@@H]3C=C(C)C4=CC(=O)CC[C@]4(C)[C@H]3CC[C@@]21C [Megestrol Acetate] | 6.62
79 | CN(C)C(=O)c1cc2cnc(Nc3ccc(N4CCNCC4)cn3)nc2n1C1CCCC1 | 2.64
80 | CC[C@@]1(O)C(=O)OCc2c1cc1n(c2=O)Cc2cc3c(CN(C)C)c(O)ccc3nc2-1 [Topotecan HCl] | -21.7
81 | CC[C@@]1(O)C(=O)OCc2c1cc1n(c2=O)Cc2cc3c(CN(C)C)c(O)ccc3nc2-1 [Topotecan hydrochloride hydrate] | -9.57
